Data on 92 molecules can be found in PubChem BioAssay AID360 (National Center for Advancing Translational Sciences (NCATS), 2006).

Among all 48,000 compounds or so, about 550 (1.1%) were called active. Inconclusive results (about 4%) are left out. No stated cut-off is given here; in the data, active means potency below about 15 µM; inconclusive means mostly about 16 µM to 33 µM; inactive means weaker than that. The list shows a part of the results. Some results are limits rather than exact numbers.
Potency means the concentration at half of the fitted maximal effect.

The assay concerns the target Lysosomal acid glucosylceramidase (Homo sapiens) (UniProt P04062). In words: Glucocerebrosidase.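 Further: the screen sought inhibitors.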 Conditions: purified enzyme, resorufin glucoside fluorescence (screen aimed at inhibitors), 20 min. Summed up: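 Compounds titrated against 0.2 nM normal enzyme, 30 uM resorufin beta-D-glucopyranoside substrate, citrate/phosphate buffer with taurocholate and tween-20, pH 5.9. Reaction ran 20 min at room temperature; fluorescence (Ex 548/Em 600) gave AC50.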
Sequence of UniProt P04062 (P04062 whole entry, looked up): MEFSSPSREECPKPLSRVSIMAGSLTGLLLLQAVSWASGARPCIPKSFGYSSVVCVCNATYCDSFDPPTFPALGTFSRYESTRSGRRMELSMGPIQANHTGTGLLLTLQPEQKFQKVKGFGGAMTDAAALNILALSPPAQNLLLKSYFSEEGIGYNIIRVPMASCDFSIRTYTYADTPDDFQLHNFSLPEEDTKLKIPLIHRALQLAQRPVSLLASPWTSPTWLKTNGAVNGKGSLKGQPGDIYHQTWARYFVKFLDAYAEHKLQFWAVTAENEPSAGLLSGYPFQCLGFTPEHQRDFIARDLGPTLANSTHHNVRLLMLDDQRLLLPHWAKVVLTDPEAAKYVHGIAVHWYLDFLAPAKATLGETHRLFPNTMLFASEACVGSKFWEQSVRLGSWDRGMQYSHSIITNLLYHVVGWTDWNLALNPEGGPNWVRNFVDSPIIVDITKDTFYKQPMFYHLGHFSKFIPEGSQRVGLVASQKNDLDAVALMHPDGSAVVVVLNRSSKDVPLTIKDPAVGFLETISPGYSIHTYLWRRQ
As to `O=C(CCN1C(=O)C2CC=C(Cl)CC2C1=O)Nc1ccccc1O` (configuration not stated), the Potency was inactive: > 76.9 µM.

On to `Cc1cc(NC(=O)CSc2nnc(-c3cccnc3)n2C)no1`, for which the Potency is inactive: > 76.9 µM.

As to `Oc1ccc(Cl)cc1CNc1ccc(Br)cn1`, the Potency result was “inactive”.

Regarding `CCOC(=O)CCc1c(C)nc2cc(C3CCCN(C(=O)OC(C)(C)C)C3)[nH]n2c1=O` (configuration not stated), the Potency was inactive: > 76.9 µM.

`COc1ccc(C(C(C(=O)c2ccco2)N2CCOCC2)N2CCOCC2)cc1` (configuration not stated): the Potency is inactive: > 76.9 µM.

As to `COc1ccc(NS(=O)(=O)c2ccc(C)c(C(=O)O)c2)cc1`, the Potency was inactive: > 76.9 µM.

As to `Cc1cccc(N2CCN(C(=O)Cc3c(C(=O)O)[nH]c4ccc(Cl)cc34)CC2)c1C`, the Potency entry is “inactive”.

As to `CCC(=O)N1CCCc2cc(S(=O)(=O)N3CCN(c4ccccn4)CC3)ccc21`, the Potency is inactive: > 76.9 µM.

For `Cc1cc(C)nc(-n2nc(C)c(C3(O)C(=O)Nc4ccc(F)cc43)c2N)n1` (configuration not stated), the Potency is inactive: > 76.9 µM.

Turning to `Cc1cc(C(=O)NCc2ccccc2Br)no1`, the Potency was inactive: > 76.9 µM.

In the case of `CCOC(=O)N1CCN(C(=O)CSc2cc(C)nc3c(-c4ccccc4OC)c(C)nn23)CC1`, the Potency is inactive: > 76.9 µM.

With `COCc1cc(=O)n2[nH]c(SC)nc2n1`, the Potency is inactive: > 76.9 µM.

Turning to `O=C(c1ccc2c(=O)n(-c3ccccc3)c(=O)[nH]c2c1)N1CCCCC1`, the Potency is inactive: > 76.9 µM.

With `CCOc1cc(C(=O)Nc2c3c(nn2C(C)(C)C)CS(=O)C3)cc(OCC)c1OCC` (configuration not stated), the Potency was inactive: > 76.9 µM.

Consider `COc1ccc(C(=O)N=c2nc3ccccn3s2)cc1`, for which the Potency is inactive: > 76.9 µM.

On to `CSc1nc(SCC(N)=O)c2c3c(sc2n1)CN(C)CC3`, for which the Potency was inactive: > 76.9 µM.

As for `Cc1cccc(C)c1NS(=O)(=O)c1ccc(F)cc1`, the Potency was inactive: > 76.9 µM.

For `O=C(CSc1ncc(-c2ccccc2)n1-c1ccccc1)NCc1ccco1`, the Potency was inactive: > 76.9 µM.

As to `Cc1cc(C)n2nc(C(=O)OCC(=O)c3cc(C)n(C)c3C)nc2n1`, the Potency is inactive: > 76.9 µM.

Take `COc1cccc(NC(=O)N2CCCC2C(=O)Nc2ccc3c(c2)OCO3)c1` (configuration not stated): the Potency was inactive: > 76.9 µM.

`COc1ccccc1CC1(C)NC(=O)N(CC(=O)Nc2cc(C)on2)C1=O` (configuration not stated): the Potency is inactive: > 76.9 µM.

Turning to `COCCCn1c(SCC(=O)Nc2ccc(C(=O)OC)cc2)nc2ccccc2c1=O`, the Potency is inactive: > 76.9 µM.

On to `COC(=O)c1ccc(Cn2cnc3ccccc3c2=O)cc1`, for which the Potency is inactive: > 76.9 µM.

For `Cc1ccc2cc(C(c3nnnn3CC3CCCO3)N3CCCC4(CCCCC4)C3)c(=O)[nH]c2c1` (configuration not stated), the Potency was active: 10.1 µM.

Consider `CCOC(=O)C1C(=O)CC(O)(c2ccccc2)CC1c1ccccc1` (configuration not stated), for which the Potency was inactive: > 76.9 µM.

Turning to `O=C(Nc1cccc(OCC(=O)N2CCOCC2)c1)C1CCCCC1`, the Potency is inactive: > 76.9 µM.

On to `O=C(Nc1ccc(F)cc1)N1CCC(c2nc3c(nnn3Cc3cccc(Cl)c3)c(=O)[nH]2)CC1`, for which the Potency result was “inactive”.

In the case of `O=C(CC1NCCNC1=O)OCc1ccccc1` (configuration not stated), the Potency is inactive: > 76.9 µM.

With `Nc1nc2sc3c(c2c(=O)s1)CCCC3`, the Potency is inactive: > 76.9 µM.

On to `O=C(c1cccc2c1C(=O)N(Cc1cccnc1)C2)N1CCN(c2ccccc2)CC1`, for which the Potency is inactive: > 76.9 µM.

For `CC(=O)Nc1nnc(Cc2ccccc2)s1`, the Potency was inactive: > 76.9 µM.

For `CCn1cc(C(=O)Nc2ccc(-n3cnnn3)c(OC)c2)c(=O)c2ccc(C)nc21`, the Potency is inactive: > 76.9 µM.

Turning to `Cc1ccc(-c2cn3nc(C)c(C)nc3n2)cc1`, the Potency was inactive: > 76.9 µM.

On to `CCOC(=O)CCn1c2nc(C)cc(C)c2c(=O)n1-c1ccccc1`, for which the Potency was inactive: > 76.9 µM.

With `Cc1ccc(C)c2[nH]c(=O)c(CCNC(=O)c3ccc4c(c3)OCO4)cc12`, the Potency is inactive: > 76.9 µM.

As to `O=C(c1ccc(NS(=O)(=O)c2cccs2)cc1)N1CCCCC1`, the Potency was inactive: > 76.9 µM.

On to `CCn1nc(C(=O)NCCc2ccc(S(N)(=O)=O)cc2)c2ccccc2c1=O`, for which the Potency was inactive: > 76.9 µM.

As for `COc1ccc(-c2noc(CCC(=O)Nc3ccc4c(c3)OCCO4)n2)cc1`, the Potency is inactive: > 76.9 µM.

In the case of `COc1ccc(C(=O)COC(=O)c2ccc(OC)c(OC)c2)cc1OC`, the Potency was inactive: > 76.9 µM.

Take `COc1cccc(CNc2nc3nc(C)cc(C)n3n2)c1`: the Potency is inactive: > 76.9 µM.

Regarding `COc1ccc(Cn2c(=O)sc3ccccc32)cc1`, the Potency was inactive: > 76.9 µM.

As for `Cc1ccc(NC(=O)CSc2nnc(CNC(=O)c3c(F)cccc3Cl)o2)cc1`, the Potency is inactive: > 76.9 µM.

In the case of `COc1ccc(C(=O)NCc2nnc(SCC(=O)N3CCc4ccccc43)o2)cc1OC`, the Potency is inactive: > 76.9 µM.

Turning to `CCN(CC)c1ccc(C2NC(=O)NC(C)=C2C(=O)Nc2ccccc2)cc1` (configuration not stated), the Potency is inactive: > 76.9 µM.

Take `C=CCn1c(SCC(=O)Nc2ccc3c(c2)OCO3)nnc1-c1ccccc1`: the Potency is inactive: > 76.9 µM.

`O=C(CCn1c(=O)c2sccc2n(CC(=O)NCc2ccco2)c1=O)NCc1ccccc1`: the Potency is inactive: > 76.9 µM.

With `c1ccc(-n2nnnc2OCCOc2nnnn2-c2ccccc2)cc1`, the Potency is inactive: > 76.9 µM.

Take `CC(=O)NC1CC2CCCC(C1)N2S(=O)(=O)c1cccc(F)c1` (configuration not stated): the Potency is inactive: > 76.9 µM.

`CN(CCCn1c(=S)[nH]c2ncccc2c1=O)Cc1ccccc1`: the Potency is inactive: > 76.9 µM.

Take `COc1cccc(C2=Nn3c(nnc3-c3ccccc3O)SC2)c1`: the Potency was inactive: > 76.9 µM.

For the molecule `Cc1ccc(Cn2ccc(NC(=O)c3cc(-c4cccs4)on3)n2)cc1`, the Potency is inactive: > 76.9 µM.

For `O=C(Nn1cnnc1)c1ccncc1`, the Potency was inactive: > 76.9 µM.

Take `C/C=C/c1ccc(OC)c(OC(C)=O)c1`: the Potency is inactive: > 76.9 µM.

With `O=C(c1ccccc1-c1nc2ccccc2[nH]1)N1CCOCC1`, the Potency was inactive: > 76.9 µM.

As to `COc1cccc(-n2ccnc2SCC(=O)Nc2nccs2)c1`, the Potency is inactive: > 76.9 µM.

In the case of `O=C(COc1ncnc2ccccc12)NC(=O)NCc1ccccc1`, the Potency was inactive: > 76.9 µM.

As to `Cn1c(N2CCN(C(=O)Nc3ccc(C(F)(F)F)cc3)CC2)nc2ccccc21`, the Potency was inactive: > 76.9 µM.

Turning to `CN1CCCC(OC(=O)c2ccc3c(c2)OCCO3)C1` (configuration not stated), the Potency is inactive: > 76.9 µM.

`Cc1cc2c(c(Sc3ccccc3)n1)C(=O)OC2`: the Potency is inactive: > 76.9 µM.

With `O=c1[nH]c(SCc2ccccc2Cl)nc2c1CCCC2`, the Potency is inactive: > 76.9 µM.

Take `O=C(Nc1ccc(N2C(=O)C3C4C=CC(C4)C3C2=O)cc1)Nc1cccnc1` (configuration not stated): the Potency is inactive: > 76.9 µM.

`Cc1nnc2c3ccccc3c(-c3ccccc3)nn12`: the Potency is inactive: > 76.9 µM.

As for `COc1ccc(CNC(=O)c2ccc(N3CCCC3=O)cc2)cc1`, the Potency was inactive: > 76.9 µM.

Consider `CC(=O)c1cccc(S(=O)(=O)N2CCN(c3nc4cc(C)cc(C)c4cc3C#N)CC2)c1`, for which the Potency was inactive: > 76.9 µM.

Consider `Nc1ccc(O)cc1C(=O)OCC(=O)C12CC3CC(CC(C3)C1)C2`, for which the Potency is inactive: > 76.9 µM.

Consider `COc1ccccc1C1(O)CCN(CC(=O)Nc2c(C)nn(C)c2C)CC1`, for which the Potency was inactive: > 76.9 µM.

Regarding `COc1ccc(N=C2C(=O)Nc3c(C)cccc32)cc1`, the Potency is inactive: > 76.9 µM.

With `CC(C)C(c1nnnn1Cc1cccs1)N1CCN(c2ccccc2)CC1` (configuration not stated), the Potency was inactive: > 76.9 µM.

Take `O=C(CSc1nc(-c2ccc(F)cc2)cs1)N1CCOCC1`: the Potency result was “inactive”.

Consider `O=C(Nc1nccs1)C1(S(=O)(=O)c2ccc(Cl)cc2)CC1`, for which the Potency was inactive: > 76.9 µM.

Take `Cc1sc2nc(C(C)C)nc(SCC(=O)NCc3ccco3)c2c1C`: the Potency was inactive: > 76.9 µM.

As for `O=c1[nH]c2ccccc2nc1-c1cccs1`, the Potency was inactive: > 76.9 µM.

For `O=C1CC(N2CCC(O)(c3ccc(Cl)cc3)CC2)C(=O)N1` (configuration not stated), the Potency is inactive: > 76.9 µM.

`CCOc1c(Br)cc(CNc2ncn[nH]2)cc1OC`: the Potency was inactive: > 76.9 µM.

Take `COC(=O)c1ccc(Cl)c(NC(=O)CN2CCN(Cc3ccccc3)CC2)c1`: the Potency was inactive: > 76.9 µM.

For the molecule `CCOC(=O)c1sc(NC(=O)c2c(C)noc2C)c(C(=O)OCC)c1C`, the Potency was inactive: > 76.9 µM.

In the case of `COc1ccc(OC)c(Nc2nc(-c3cccs3)cs2)c1`, the Potency is inactive: > 76.9 µM.

Turning to `CC(C)N(Cc1cc2ccccc2[nH]c1=O)C(=O)c1cccnc1`, the Potency is inactive: > 76.9 µM.

For `O=C(NCC(=O)N(c1ccccc1)C(C(=O)NCC1CCCO1)c1ccccc1)c1ccco1` (configuration not stated), the Potency is inactive: > 76.9 µM.

Take `CCN(CC)CCCNC(=O)Cc1c(C(=O)O)n(C)c2ccccc12`: the Potency is inactive: > 76.9 µM.

Turning to `COC(=O)C1=C(C)Nc2ncnn2C1c1ccc(OC(=O)c2ccccc2)cc1` (configuration not stated), the Potency was inactive: > 76.9 µM.

With `CCOc1ccc(/C(O)=C2/C(=O)C(=O)N(CCOCCO)C2c2cccnc2)cc1` (configuration not stated), the Potency was inactive: > 76.9 µM.

Turning to `Cc1c(C(C)O)nnn1-c1nonc1N` (configuration not stated), the Potency is inactive: > 76.9 µM.

Consider `CC12CCC(C(N)=O)(c3nc4ccccc4nc31)C2(C)C` (configuration not stated), for which the Potency is inactive: > 76.9 µM.

As to `CCN(CC)S(=O)(=O)c1ccc(C(=O)OC2CCCCC2CN(C)C)cc1` (configuration not stated), the Potency entry was “inactive”.

On to `O=C1c2ccccc2C(=O)N1OCCOCCOCCON1C(=O)c2ccccc2C1=O`, for which the Potency was inactive: > 76.9 µM.

`COC(=O)n1c(=O)oc2cc(S(=O)(=O)N3CCCCC3)ccc21`: the Potency is inactive: > 76.9 µM.

`Cc1ccc(CNc2ccc3c(c2)OCO3)cc1`: the Potency was inactive: > 76.9 µM.

Consider `CC1CCCC(C)N1C(=O)CSc1nnc(-c2c[nH]c3ccccc23)o1` (configuration not stated), for which the Potency was inactive: > 76.9 µM.

Regarding `CCOC(=O)c1c(C)n(C)c2ccc(O)c(CN3CCC(C)CC3)c12`, the Potency is inactive: > 76.9 µM.

For `Cc1ccc(-c2nn3nnnc3c3ccccc23)cc1`, the Potency was inactive: > 76.9 µM.

For `CCCCNC(=O)CN1C(=O)C(CC)Oc2ccc(Cl)cc21` (configuration not stated), the Potency is inactive: > 76.9 µM.
